# Whole data set: some 1,100 sequences, median “thermal melting temperature (Tm) of peptide-HLA complex” near 58, cut for the lowest 2% near 42. The list shows a part of the results.
# Target: HLA-A*02:01
# Assay: thermal melting temperature (Tm) of peptide-HLA complex; higher = more thermostable pHLA complex
# Settings: C1R-A*02:01
# 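Further: cell lysates heated 10 min at 37–73 °C, remaining pHLA pulled down with pan-class I antibody, peptides quantified by DIA-MS versus 37 °C, Tm where half the complex is lost.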
row,Sequence,thermal melting temperature [°C]
1,KLFNEFIQL,57.8
2,SLTSKIPAL,55.6
3,KIFEMGPVFTL,52.7
4,SLEEFVHSL,47.6
5,GLEEYLEKV,59.6
6,LLDPNVKSIFV,62.2
7,YLSEKVLAA,57.8
8,HLFDAFVSV,63.1
9,RLIEETISI,58.1
10,ALAEIAKAEL,59.1
11,YLDGHLITTV,59.8
12,FLVDGPRVQL,57.1
13,SLDERPVAV,61.2
14,SISAGIPKV,57.4
15,LLDVTPLSL,53.1
16,ILEEKGLSQV,59.1
17,NLAEVVERV,61.1
18,VLYEKDIQLF,48.3
19,RLLDGAFKL,49.9

row,Sequence,thermal melting temperature [°C]
1,GLIDRQVTV,60.8
2,VLEDPVHAV,48.5
3,SLDSQKFVTV,48
4,FVDGLTFKV,54.2
5,GMYIFLHTV,60.3
6,STYEGKPIFL,56.8
7,IIRENSISL,58.5
8,FLQEGDLISA,59.1
9,VLLKARLVPA,59.7
10,GVLDTLTKV,59.8
11,QLLAILPEA,59.1
12,VVWGTVIRV,58.5
13,ALEEADKMFL,46.2
14,QLQGYLRSV,57.7
15,ALADKELLPSV,63.4
16,FLMENGSITSI,58.2
17,KLLDPEDISV,59.5
18,VVVDPIQSV,50.6
19,ILLDNDHYAM,50.2

row,Sequence,thermal melting temperature [°C]
1,VIDGHIYAV,59.7
2,RTIEYLEEV,59.7
3,LIDVKPLGV,47.3
4,KLNATNIEL,51.5
5,LADETLLKV,55.2
6,KLYDIDVAKV,56.2
7,VLWNKTVTA,42.8
8,AMFDHIPVGV,55.3
9,YVTDVLYRV,62.5
10,ELFSSPPAV,59.7
11,ALLDQLHTL,62.5
12,QLNDVAHLV,54.4
13,TMAKESSIIGV,58.8
14,YLGNINPQM,59.7
15,SMMDPNHFL,56
16,GLDDIKDLKV,60.7
17,VLKEIVERV,57.3
18,QLSEVFIQL,55.2
